# Assay results: publication PMC12136788
# The list shows a part of the results.
# B1: chr12:76028832:76028933:-|3pUTR|ENSG00000139289|msi1|total|mutant (ssRNA)
# RNA: GGGAGUUCUACAGUCCGACGAUCAAAGGAAAAGACUGGAUAAACACAGGAUUUUCAGUAAGAAAACAACCCCAGUCUUGUCUCCGAAGCCACUUGUUGAGGAGUCUGUUGGGGGAAAAAAGAGGAUAUGCUUUUAAAGGCCGACAACAGAGGAUUGAGCAUCA
# B2: chr11:85958428:85958534:-|3pUTR|ENSG00000073921|unk|total|mutant (ssRNA)
# RNA: GGGAGUUCUACAGUCCGACGAUCAGAAACAAUAACUGAAAUUAACUUUUCUUUUUUUAAAAAAAAUUAUAUUCAGUUUGCAGCCGACAUUCCUUAAGUAUUUGUAUUUAUUUAUGAUUAUCAAUUUUACAUAACAUUAAUAUUCAACAGAGGAUUGAGCAUCA
# B3: chr6:132296306:132296407:-|3pUTR|ENSG00000079931|msi1|total|mutant (ssRNA)
# RNA: GGGAGUUCUACAGUCCGACGAUCAUGGGAAACACCGAAAUGGUAUGUAUUAAUAACUGAUCACCGGCUGAGGAGAAAAAAUGCCGCUGGCUGCAAACCCAGUGCUGUGAGGUGACUUAUAUGAGGUUCCAGAUCAAAGACAGGCAACAGAGGAUUGAGCAUCA
# B4: chr12:102417490:102417817:-|three_prime_utr|ENSG00000017427|control|control|control (ssRNA)
# RNA: GGGAGUUCUACAGUCCGACGAUCACAGAGGCAAGGAUGAUGAGAGAGGAGCAGACAGCAAGAAUGAAAAGCAGAAAAUACAAUAGAGGAAAUGAAGAAAAGUAGGCCUGCUGGAGCUAGAUGAUGAUGUGAUGGAAAUAGAAGCAACAGAGGAUUGAGCAUCA
# B5: chr17:18327447:18327548:+|3pUTR|ENSG00000176994|msi1|total|mutant (ssRNA)
# RNA: GGGAGUUCUACAGUCCGACGAUCGUCAACUCACAGAUUCUGCAGCAGCUGCUCCACCCACAAUAAAGCAAACGCCGACAGGCCCGACCCCAGAUUGCAGGGGCUGCCACCUACAAGGUGGGACCACAGGCUGCCUCACCGGGACAACAGAGGAUUGAGCAUCA
# B6: chr16:74503563:74503676:-|CDS|ENSG00000090863|unk|FALSE|bound_elsewhere (ssRNA)
# RNA: GGGAGUUCUACAGUCCGACGAUCGGCAACAUCACUGAGUAUCAGUGUCACCAGUACAUUACCAAGAUGACGGCCAUCAUUUUUAGUGAUUACCGUUUAAUCUGUGGCUUCAUGGAUGACUGCAAAAAUGACAUCAACAUUCUGCAACAGAGGAUUGAGCAUCA
# B7: chr1:34868604:34869089:-|CDS|ENSG00000116544|control|control|control (ssRNA)
# RNA: GGGAGUUCUACAGUCCGACGAUCGCCCCCACCCCCGGCCCUGGGGCCGGCCGCCGUGACUCCUGGAUAGAGCGCGGUUCACGUAGCCUCCCCGACUCAGGCCGCGCAUCCCCCUGCCCACGCGACGGCGAGUGGUUCAUCAAGCAACAGAGGAUUGAGCAUCA
# B8: chr1:225495143:225495244:-|3pUTR|ENSG00000154380|msi1|total|mutant (ssRNA)
# RNA: GGGAGUUCUACAGUCCGACGAUCACAUUAUUAUGAUGGUUUUUGUGCUCUUGUACGUUGGAUGUCUUAAGCUGAGUACAGUUCCGGGGAUCCUUUCUAAUGACAGGAAGGCACUGCUUUCCUCAACACUGUGAUCUGACCUGUCAACAGAGGAUUGAGCAUCA
# B9: chr20:11926050:11926151:+|3pUTR|ENSG00000132640|msi1|FALSE|unique (ssRNA)
# RNA: GGGAGUUCUACAGUCCGACGAUCAUGAAAUGGAAUGAAGGCUAAUAUGCUUGCUUUAUUUACUUUUGUAAUCUUGGAUUUUGUAGCUUUUAAAACUAGAAACCAUUGUUCUAACAAAGCAGGCAACUUUAUUCUAUAAACACACAACAGAGGAUUGAGCAUCA
# B10: chr12:49763637:49763739:+|3pUTR|ENSG00000139644|msi1_unk|total|mutant (ssRNA)
# RNA: GGGAGUUCUACAGUCCGACGAUCAUGUGUAUCAAGGUACAGCAUCGCCGGGUUCCCCUAAACUUGCCCUGUUUUUGUUUUUUCCGUUUGUUAUCCCCUUACUGAGCGGCCUCUACCCGGUGGCUGUGAUUAAAUGUCCCAAGCCAACAGAGGAUUGAGCAUCA
# B11: chr7:5620113:5620210:-|3pUTR|ENSG00000011275|msi1_unk|total|mutant (ssRNA)
# RNA: GGGAGUUCUACAGUCCGACGAUCGUCACUUUGUAUAAAAACAAGAAACGAUCCGUUCAUUAAACUUUUUCUUUACCUUCUGGCCGUAAAAACCGAUAAAAUAAUUCCGUUUCAACUACUGUGUGUAAAAAGCCUGUAUCAUAUCAACAGAGGAUUGAGCAUCA
# B12: chr1:17407970:17408071:-|3pUTR|ENSG00000179051|msi1|total|mutant (ssRNA)
# RNA: GGGAGUUCUACAGUCCGACGAUCGGGUACCGUUCUGCUGACCCAGCUCCCUUCCGUCACGUUUGCUUGGCUCUGGUACCAAACCGUUGGGAUUACCGAAGAGUCCCCUUCCUUGCGUGUCAGCACGGAUGCUGUGACUGCCACCAACAGAGGAUUGAGCAUCA
# B13: ENSG00000198589:be:win_9701|3pUTR|ENSG00000198589|bound_else_gene|NA|bound_elsewhere_windowed (ssRNA)
# RNA: GGGAGUUCUACAGUCCGACGAUCCAAGGAUUUGGAAUGAACAAUUCAGUUUGACAGAAAAAGCUGAAUAAAAUGGCAUCUGUAAUUGAAUUGUUGGAAAUGCCUUUUUUGCUCCUAAAUUUUAAACAUCAUUAAUAAAAUAAUCAACAGAGGAUUGAGCAUCA
# B14: ENSG00000077232:stop:overlap|stop_codon|ENSG00000077232|stop_codon|NA|stop_codon (ssRNA)
# RNA: GGGAGUUCUACAGUCCGACGAUCUGUUGGUUAAUAUCUUUCAUCAGUUGUGGAAACCUGUCAGCUGGAUGGUCUUGUUAAUGUAGGAUGGAUGGACUGUGCCACCCAGGAUAACCUUUGUAAAAGCUUAGAUAUUACAACAAGCAACAGAGGAUUGAGCAUCA
# B15: chr13:52461607:52461862:+|CDS|ENSG00000136108|unk|total|mutant (ssRNA)
# RNA: GGGAGUUCUACAGUCCGACGAUCGUUACAAUCCGGAAAGGGCCUCAUGAAAAAGAACUAUUACAAUCAAAAACAGCUUUAUCCCGUGUCAAAACCAGUUCUUCUCAAGGUAUAAUAAGAAAUAAGACUCUAUCAAGAUCCAUACAACAGAGGAUUGAGCAUCA
# B16: chr1:85267750:85267865:-|CDS|ENSG00000142867|unk|FALSE|unique (ssRNA)
# RNA: GGGAGUUCUACAGUCCGACGAUCAGGAGAAUCCAGCACGACGCCCUUUUUUUCUACUAAUUCUUCUCUGAAUUUGCCUGUUCUAGAAGUAGGCAGAACUGAAAAUACCAUCUUCUCUUCAACUACACUUCCCAGACCUGGGGACAACAGAGGAUUGAGCAUCA
# B17: chr5:72208839:72208948:+|3pUTR|ENSG00000131711|msi1_unk|FALSE|overlapping (ssRNA)
# RNA: GGGAGUUCUACAGUCCGACGAUCCUUGCCUCUCUUUAGUCACCUGUCACAGGAGGUUCCUGCUCAGUAAUGAUAUUGUGAGUUAGGAUAAUAACUUUUUUUUUUUGUGCUUCAGAUUUAGAAGAAAAGAUCCUGUUUCCAUUUCAACAGAGGAUUGAGCAUCA
# B18: chr14:92797766:92797867:+|CDS|ENSG00000066455|msi1|total|mutant (ssRNA)
# RNA: GGGAGUUCUACAGUCCGACGAUCCAUUUUGUGCGAAGAAAAAAGUCAGAACCUGAUGAUGAGCUGCUGUUUGAUUUUCUUAACCGUUCACAGAAGGAGCCUACCGGGAGGGUGGAAAUCAGAAAGGAAAAAGGCAAGACACCUCAACAGAGGAUUGAGCAUCA
# B19: chr18:68676332:68676434:-|3pUTR|ENSG00000166479|msi1_unk|total|mutant (ssRNA)
# RNA: GGGAGUUCUACAGUCCGACGAUCAUCAAGAUUAUGAGGUUAAAAAUAAUGUGGUUUUAUACCGCACCGUGGUUUUAUUUUGUCCGUUAUUUUUAAAGGAGAAGAAAUGUUACUUUUUAACUUUAUACUCAGUUGCAUUAUCAUCAACAGAGGAUUGAGCAUCA
# B20: ENSG00000107863:be:win_2001|CDS|ENSG00000107863|bound_else_gene|NA|bound_elsewhere_windowed (ssRNA)
# RNA: GGGAGUUCUACAGUCCGACGAUCAAGGACUGACAGUGCCCCCGAUCAGCAAGUGGAGACUGGGAAAUCCCCCUCUUUAUCUGGAGCCUCUGCCAAGCCUGCCCCUCAGUCGAGUGAAAACGCUGGUACUUCAGAUUUAGAACUCAACAGAGGAUUGAGCAUCA
# B21: chr1:112912765:112912828:-|3pUTR|ENSG00000155380|msi1_unk|total|mutant (ssRNA)
# RNA: GGGAGUUCUACAGUCCGACGAUCUUAAGGUUUGCAAAUUAAAAAGGGCCAGAAAAAUUUGGCACCAGGCAAACGAAUAAAGACCGGAUUGGGAAAGAAGUUGCUAAGUGUGCUCCGUUUUAAUAAGUAAUUCCUUCUCUUUUUCAACAGAGGAUUGAGCAUCA
# B22: chr1:228098371:228098472:+|3pUTR|ENSG00000143761|msi1_unk|total|mutant (ssRNA)
# RNA: GGGAGUUCUACAGUCCGACGAUCUGUGUUGAAAUCCAUUUUGGUGGUUGGUUUUUAACCCAAACUCAGUGCAUUUUUUAAAACCGUUAAGAAUCCAAGUCGAGAACACUUGAACACACAGAAGGGAGACCCCGCCCCGCACCGCAACAGAGGAUUGAGCAUCA
# Target: T1, UNK ZnF1-6 (called full-length) (human, UniProt Q9C0B0 30-357)
# T1 sequence: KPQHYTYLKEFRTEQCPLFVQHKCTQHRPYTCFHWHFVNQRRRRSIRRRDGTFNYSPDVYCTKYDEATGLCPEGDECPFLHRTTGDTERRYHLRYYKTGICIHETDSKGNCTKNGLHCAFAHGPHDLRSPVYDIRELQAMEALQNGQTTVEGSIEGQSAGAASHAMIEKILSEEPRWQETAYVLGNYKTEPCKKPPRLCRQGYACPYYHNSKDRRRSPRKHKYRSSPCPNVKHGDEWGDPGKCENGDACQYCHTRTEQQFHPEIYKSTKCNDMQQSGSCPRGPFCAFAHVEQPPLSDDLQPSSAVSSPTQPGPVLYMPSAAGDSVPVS
# Assay: nsRBNS (natural sequence RNA bind-n-seq); RBNS binding buffer (assumed for nsRBNS): 25 mM Tris pH 7.5, 150 mM KCl, 3 mM MgCl2, 0.01% Triton X-100, 500 ug/ml BSA, 20 U/ml SUPERase-In, 4 C; UNK is unkempt and MSI1 is Musashi-1; names of the RNAs are library labels; protein concentration not given here; high values mean tight binding
row,Binder,binding signal [enrichment R]
1,B1,0.52
2,B2,1.32
3,B3,0.59
4,B4,1.21
5,B5,0.911
6,B6,0.29
7,B7,0.971
8,B8,0.429
9,B9,0.616
10,B10,0.652
11,B11,0.387
12,B12,0.631
13,B13,0.976
14,B14,1.47
15,B15,0.555
16,B16,0.504
17,B17,0.772
18,B18,0.771
19,B19,0.363
20,B20,0.889
21,B21,0.36
22,B22,0.569
